Measurements as given in the supplement of paper PMC3334620.
In all, about 33,000 sequences were measured (“E-score (-0.5 to 0.5)”: median about -0.056, highest 2% from about 0.38 on). Some of the results follow.

Each sequence was assayed against Stb4 (UniProt P50104) (assay: PBM E-score (8-mer binding enrichment) (E-score (-0.5 to 0.5)); higher = stronger / more preferred TF binding; most listed sequences are background and not binding sites). Conditions: protein concentration: 200 nM; construct: GST-DNA-binding domain.
Outline: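 Yeast transcription factors, full-length or as DNA-binding domains, were expressed with a GST tag using PURExpress in vitro transcription/translation. At about 100-200 nM they were applied to universal all-10-mer Agilent arrays, double-stranded by primer extension on fresh or once-stripped slides. Fluorescent anti-GST detected bound protein, and masliner normalised the scans. E-scores for ungapped eight-base words, pooled with reverse complements, came from the Universal PBM Analysis Suite.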

| Sequence | PBM E-score |
| --- | --- |
| AGTGTAGG | -0.103 |
| ACTCAAGT | -0.268 |
| TGCGGACA | 0.0349 |
| GGGCTACA | -0.161 |
| CAACGCCC | -0.0447 |
| CGGCTTGA | 0.2 |
| TAAACAAA | -0.0349 |
| CCTTAATC | -0.0352 |
| CGCTGCTC | -0.115 |
| AAATTCGC | 0.0337 |
| CCGACAGG | 0.306 |
| CAATACAG | -0.124 |
| ATCGCGTG | 0.0348 |
| CTACAATC | -0.00051 |
| CTTTGGAA | -0.158 |
| CGGATATA | 0.452 |
| CGATCAGC | 0.0117 |
| AAGGTTAG | -0.233 |
| AGATCCCG | 0.407 |
| GGCCAGTA | -0.0686 |
| CGTATTTA | -0.00042 |
| CAGGGCCC | -0.11 |
| ACTCTCAA | -0.413 |

| Sequence | PBM E-score |
| --- | --- |
| AGGCTACA | -0.254 |
| CCAGCACC | -0.191 |
| CCTTACCA | -0.278 |
| AATGTTAT | 0.00102 |
| ACCACCCC | -0.115 |
| ACTTAAAG | -0.237 |
| CTGTTAAC | 0.118 |
| CACCTCTA | -0.00727 |
| ACACATTG | 0.0142 |
| ACGAACAT | 0.0333 |
| CGCTGTAA | -0.0623 |
| ATTTTCGG | 0.423 |
| ATTGACTG | -0.182 |
| TTATACAA | 0.0885 |
| CATCTCCA | -0.152 |
| CCGGGACG | 0.28 |
| ACTCCCAT | -0.304 |
| GGCCTCCC | 0.113 |
| CTTCTGGA | 0.0106 |
| AGAATTCA | -0.181 |
| ACTGCAGT | -0.318 |
| AGGGCCAG | -0.297 |
| TGCTTCCA | -0.323 |

| Sequence | PBM E-score |
| --- | --- |
| TGGGAGAA | -0.223 |
| ACATCCGC | 0.382 |
| ATCAGCCG | 0.314 |
| ACTCCCAG | -0.141 |
| CATCCGAC | 0.455 |
| ACAGGATG | -0.125 |
| ACAGGAGA | -0.0422 |
| GGGATTAA | 0.202 |
| ATAAGGAA | -0.0893 |
| GTCATCTA | -0.0621 |
| AGAAATCT | -0.0766 |
| GACATGCC | 0.00238 |
| GTGTTGCA | -0.099 |
| AGCCCTAC | 0.025 |
| CTATTAAC | -0.0216 |
| CAATAGCG | -0.0639 |
| AGATAGAA | -0.122 |
| ATCAACAG | -0.00627 |
| TAAACCCA | -0.179 |
| CTTATCGA | -0.105 |
| AGCTCCAT | -0.206 |
| GGTATATA | -0.0302 |
| CATGAGGC | -0.0911 |

| Sequence | PBM E-score |
| --- | --- |
| GTCTATAA | -0.136 |
| ACACTATA | -0.225 |
| CTCCGTGC | 0.217 |
| ACAGGGAC | -0.0374 |
| GTGAGCAA | -0.125 |
| GCGATGCC | -0.00713 |
| CCCCTCAC | 0.0126 |
| CCTAGGAC | -0.267 |
| GAGTCAGC | -0.135 |
| AGACATGA | -0.271 |
| GGAACTTA | 0.341 |
| GCTTCTGA | -0.00608 |
| ATTCACAC | -0.121 |
| GCTACGCA | 0.128 |
| AAGAGCGT | -0.0886 |
| AAGATAGG | -0.308 |
| AAGGCCCG | 0.15 |
| ATTGGGGC | -0.18 |
| AGCATATG | -0.297 |
| ACAAATCG | -0.057 |
| AGTTTCAT | -0.0839 |
| ACGCAAAA | -0.164 |
| CCCCTACA | -0.252 |

| Sequence | PBM E-score |
| --- | --- |
| GCAGCATA | -0.192 |
| CCACCGCA | -0.0223 |
| TACATTCA | -0.181 |
| CCTTCCGA | 0.451 |
| GGTTTTAC | -0.00413 |
| CCCGCGCA | 0.117 |
| TGACGACA | -0.0613 |
| TACAGACA | -0.183 |
| AAGGAAGT | 0.119 |
| ATCTTGTG | -0.185 |
| CCCCGGCC | 0.17 |
| CATAACCG | 0.251 |
| CGCCTCGA | -0.14 |
| ATCCTCAG | -0.192 |
| AACAAAGC | -0.0234 |
| CCGCCGCC | 0.157 |
| AATTGGAG | -0.273 |
| GCAAGCAA | -0.128 |
| CATGCGAC | -0.126 |
| CAAATTTA | -0.0517 |
| ACTCGTCC | -0.00859 |
| GAGCACAA | 0.118 |
| GCACTGGC | -0.224 |

| Sequence | PBM E-score |
| --- | --- |
| AACGGTAG | -0.0634 |
| ATGCTTAC | -0.188 |
| GATCGTGC | -0.0855 |
| CTTCGAAG | -0.305 |
| GAAAAGCA | -0.0274 |
| CACCAGAC | 0.02 |
| ATACCCAC | 0.102 |
| ATTCGACG | -0.187 |
| AGTGTGGA | -0.0148 |
| TATTCAAA | -0.0679 |
| GACGAAAC | -0.0204 |
| ACATTCCC | 0.13 |
| GCGCGCGA | 0.0498 |
| ACAGATGT | -0.0573 |
| AGTCGACT | -0.232 |
| ACTTGGAG | -0.16 |
| AGGTTTGC | -0.246 |
| ACTATGGC | -0.151 |
| GGTGCGCA | 0.139 |
| AAGCGGTA | 0.0224 |
| ACGCGAGG | -0.191 |
| CCTCTATC | -0.0792 |
| GCTTCACC | -0.0947 |

| Sequence | PBM E-score |
| --- | --- |
| CTCATCAG | -0.112 |
| TCTCCCAA | -0.163 |
| ATGTTTAG | -0.0778 |
| AGGATTTA | -0.00207 |
| AGGACCGA | 0.132 |
| CAGCGTGA | -0.26 |
| AGTGTCAT | -0.0875 |
| AAGATAAA | -0.0146 |
| AAGGGCCT | -0.119 |
| GAAACCGC | 0.166 |
| AATGTTGG | -0.165 |
| ATTTAACG | 0.101 |
| CGTAGCCC | 0.0233 |
| ACGTATCT | -0.176 |
| CCAATGCC | 0.0513 |
| ATCGATTA | -0.0251 |
| GCACTACA | -0.187 |
| ATGACACC | -0.176 |
| ACTCCTAG | -0.16 |
| GGGGCTGA | -0.302 |
| TCGGAACA | 0.479 |
| AATGGACG | -0.155 |
| GAGCGTCC | -0.111 |

| Sequence | PBM E-score |
| --- | --- |
| AGAGTCGC | -0.1 |
| CGGTACAC | 0.103 |
| GACTGATA | 0.0385 |
| AGCTCCGC | 0.121 |
| AACAAGAC | -0.0289 |
| ACTAACGC | -0.139 |
| ACTGAACC | 0.0702 |
| CTGATGTC | 0.0602 |
| GGGCATCA | -0.088 |
| AACGGCGA | 0.0859 |
| AATATCTG | 0.0322 |
| TAGTTCCA | -0.142 |
| CACTGGGA | -0.284 |
| AATGGTGC | 0.115 |
| AGGGGGGA | -0.258 |
| ATTCTTCA | -0.173 |
| CCTGGCAC | -0.00805 |
| AATTAGTG | -0.105 |
| CTATTAAA | -0.0169 |
| TCGTTCAA | -0.119 |
| GAATCCCA | -0.105 |
| CAGGGCCG | 0.0628 |
| CGGAGTCA | 0.254 |

| Sequence | PBM E-score |
| --- | --- |
| AGTATAAC | -0.0469 |
| GGTTAACA | 0.149 |
| CCCGGCTA | 0.329 |
| CAACCCTC | -0.0946 |
| ATTGCTGC | -0.0345 |
| ATCTTAAC | -0.187 |
| CAAAAAGC | 0.0643 |
| CGCGCGGC | 0.272 |
| AACAATTC | -0.059 |
| AGGTTTAG | -0.0776 |
| ATTGTCCA | -0.0679 |
| CAGGTCTC | -0.181 |
| TATCCCGA | 0.398 |
| ATCATAAC | 0.113 |
| GGATCTTA | 0.175 |
| CCAGTAGA | -0.308 |
| CTAGAAGC | -0.122 |
| AGCATTCG | 0.0196 |
| ACCTTAGA | 0.0092 |
| AGAAGCTG | -0.0865 |
| AGGATGCC | 0.0566 |
| ACAGATTA | -0.0875 |
| AGTAGAAC | -0.152 |
